# Among all 45,000 compounds or so, about 200 (0.44%) were called active. Inconclusive results (about 7%) are left out. The call rests on the fitted dose curve; in most records, active means well fitted activation curve with a large enough effect; inconclusive means small, poorly fitted or top-dose-only effect; inactive means no such curve, though single readings can be large or run the other way. The list shows a part of the results.
# Experiment: qHTS of TDP-43 Inhibitors: NCGC Sytravon Library Screen; further: 0% is about no effect; nearly all actives have a fitted effect of over 55% in size
# Details: yeast TDP-43 toxicity rescue, BacTiter-Glo growth, 24 h; series mostly up to 46.1 µM; growth rescue (activation): at the top concentration
# How it was run: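 TDP-43-expressing yeast, pregrown in raffinose, seeded at OD600 0.02 in galactose medium with compound for 24 hr at 30 deg C. Growth read by BacTiter-Glo luminescence, so rescue of toxicity appears as activation.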
row,Compound,growth rescue (activation)
1,Cc1[nH]ccc(=O)c1Oc1ncc(C(F)(F)F)cc1Cl,inactive: 9.32%
2,O=C(CSc1n[nH]c(=O)[nH]c1=O)N/N=C/c1ccccc1O,inactive: 27.1%
3,CCNC(=S)N1CCN(CC(=O)Nc2ccc(Br)cc2)CC1,inactive: 9.27%
4,COCCCC1CCN(Cc2nc(Cc3ccccc3Cl)no2)CC1,inactive: 2.14%
5,CCN(CC)S(=O)(=O)c1ccc(C(=O)OCC(=O)Nc2ccc(-c3nc4ccc(C)cc4s3)cc2)cc1,inactive: -4.39%
6,CCc1ccc(N(C(=O)CCC(=O)Nc2cc(C)on2)C(C(=O)NC(C)(C)C)c2ccc(OC)cc2)cc1 (stereo not drawn),inactive: -9.01%
7,COc1ccc(C(=O)CSc2nc3ccc([N+](=O)[O-])cc3[nH]2)cc1,inactive: 8.98%
8,COc1cc([N+](=O)[O-])cc(/C=N/NC(=O)c2ccc(C)nc2)c1O,inactive: 23.7%
9,Cc1c(C(=O)N(Cc2ccc(N(C)C)cc2)C2CCS(=O)(=O)C2)oc2ccccc12 (stereo not drawn),inactive: 8.05%
10,Cn1c(=N)n(CC(O)c2ccccc2)c2ccccc21 (stereo not drawn),inactive: 4.61%
11,COc1ccccc1-c1cc(C(=O)N2CCCC2)no1,inactive: 7.37%
12,NS(=O)(=O)c1ccc(CNC(=O)Cc2c(F)cccc2Cl)cc1,inactive: 21%
13,CCOC(=O)c1c(C)[nH]c(C(=O)OCc2ccccc2F)c1C,inactive: 8.14%
14,O=C(c1ccc2c(c1)N(Cc1ccccc1)C(=O)c1ccccc1S2(=O)=O)N1CCN(c2ccccc2)CC1,inactive: 5.94%
15,COc1ccc(CCNC(=O)c2cc(-c3cc(C)ccc3O)n[nH]2)cc1OC,inactive: 10.9%
16,COC(=O)Cn1nc(C)c2c(C)n(-c3ccccc3)nc2c1=O,inactive: 5.23%
17,CC(C)COC(=O)N1CCCCC1c1cc(C(=O)NCc2cccnc2)no1 (stereo not drawn),inactive: 9.44%
18,Cc1cc(/C=N/n2cnnc2)c(O)c([N+](=O)[O-])c1,inactive: 32.5%
19,CC(C)c1nc(N2CCN(C(=O)c3ccco3)CC2)c(C#N)c2c1COC(C)(C)C2,inactive: 25.1%
20,COCCSc1nnc(NS(=O)(=O)c2ccccc2)s1,inactive: 1.23%
21,NC(=O)c1cccc(-c2ccnc3c2CC(C(=O)NCc2ccc(F)c(F)c2)O3)c1 (stereo not drawn),inactive: 6.33%
22,O=C(O)c1ccc(Sc2ccccn2)c([N+](=O)[O-])c1,inactive: 3.54%

row,Compound,growth rescue (activation)
1,O=c1c2ccccc2cnn1Cc1n[nH]c(=S)n1-c1cc(Cl)cc(Cl)c1,inactive: 9.49%
2,COc1ccc(F)cc1C(=O)C1CCCN(Cc2cn(C)c3ccccc23)C1 (stereo not drawn),inactive: -23.1%
3,COc1cccc(N2CCN(CC(=O)NC(=O)NC3CCCCC3)CC2)c1,inactive: 14.8%
4,Cc1ccc(CNS(=O)(=O)NCc2ccccc2)cc1,inactive: 3.75%
5,O=C(Cn1cnc2ccccc2c1=O)Nc1nnc(C2CC2)s1,inactive: 13.1%
6,CCn1ncc(NC(=S)Nc2ccc3c(c2)OCO3)c1C(N)=O,inactive: 11.7%
7,CC1CCC/C(=C\Nc2ccc(C(=O)O)cc2)C1=O (stereo not drawn),inactive: 12.5%
8,COc1cc(OC)c(OC)cc1CNCCNC(=O)c1ccco1,inactive: -7.5%
9,CCOC(=O)CSc1ccc2nnc(CCNS(=O)(=O)c3ccccc3)n2n1,inactive: 4.21%
10,C=CCn1c(SCC(=O)Nc2sc3c(c2C#N)CCC(C)C3)nc2cc(C(=O)O)ccc2c1=O (stereo not drawn),inactive: -17.7%
11,COc1ccc(-c2cc(C(=O)N/N=C(\C)c3cccnc3)c3ccccc3n2)cc1,inactive: 5.6%
12,CCc1nc2ccc(C(=O)NCc3ccc4c(c3)OCO4)cn2c1N(C)CCC(C)C,inactive: 0.746%
13,O=C(Nc1ccc2[nH]c(=O)[nH]c2c1)c1c(F)c(F)c(F)c(F)c1F,inactive: 5.53%
14,O=C(NCc1ccccc1)c1cc(C2CCCCN2S(=O)(=O)Cc2ccccc2)on1 (stereo not drawn),inactive: 22.6%
15,O=C(Nc1cc(NC(=O)c2ccccc2F)ccc1Cl)c1ccccc1,inactive: -12.1%
16,CCCC(=O)N1CCCC1(C)C(=O)Nc1ccc(OC(F)F)cc1 (stereo not drawn),inactive: 7.75%
17,O=C(NCC1CCCO1)c1ccc(C(=O)NCC2CCCO2)cc1 (stereo not drawn),inactive: -0.51%
18,COc1cc(C)c(NC(=S)Nc2cccc(Cl)c2C)cc1OC,inactive: 16%
19,CC(=O)N1C(C)(C)CC(=NOC(=O)c2ccccc2)CC1(C)C,inactive: 19%
20,O=S(=O)(c1ccccc1)c1ncc(C(F)(F)F)cc1O,inactive: 3.46%
21,N#CN=C(c1ccccc1)c1ccccc1,inactive: -8.43%
22,COc1ccccc1OCCC(=O)OCC(=O)Nc1cc(S(=O)(=O)N(C)C)ccc1Cl,inactive: 9.41%

row,Compound,growth rescue (activation)
1,COc1cc(-c2noc(CCC(=O)NC3CCCC3)n2)cc(OC)c1OC,inactive: -13.5%
2,CC1=NN(C(N)=S)C(=O)C1N=Nc1cc(Cl)ccc1Cl (stereo not drawn),inactive: 33.6%
3,COc1ccc(NC(=O)C2(C)CCCN(C(C)C)C2)cc1OC (stereo not drawn),inactive: 4.56%
4,CC1CC(C)CN(CC(=O)c2c[nH]c3ccccc23)C1 (stereo not drawn),inactive: 11.7%
5,Cc1ccc(C(=O)NC2CCN(C(=O)Nc3ccccc3)CC2)cc1,inactive: -7.52%
6,O=C(CCn1cnnn1)Nc1ccc(F)cc1,inactive: 0.0189%
7,Cc1ccc(CNC(=O)c2coc(=O)c3ccccc23)o1,inactive: 41.1%
8,Cc1ccc(-c2ccc(S(=O)(=O)N3CCCC3)cc2)cc1,inactive: 6.66%
9,COc1ccccc1/C=C1\SC(=S)N(CCC(=O)Nc2cc(C)on2)C1=O,inactive: 16.9%
10,CSc1ccccc1Sc1cc(C(=O)O)c2ccccc2n1,inactive: 18.7%
11,O=c1[nH]c(CN2CCN(S(=O)(=O)c3ccc(Cl)cc3)CC2)nc2cc(Cl)ccc12,inactive: 15.1%
12,COc1ccc(C(NC(=O)C(C)C)c2ccc3cccnc3c2O)cc1 (stereo not drawn),inactive: -37.2%
13,CCc1nc2ccccc2n1CC(=O)Nc1cc(C)on1,inactive: -9.18%
14,CCN(CC)C(=O)c1cccc(-c2csc(C(O)c3ccc(F)cc3)n2)c1 (stereo not drawn),inactive: 10.7%
15,COc1ccc(OC)c(NC(=O)CN(C)CCOc2ccc(Br)cc2)c1,inactive: -14.4%
16,CCCCCn1c(=O)c(-c2nc3ccccc3[nH]2)c(O)c2ccccc21,inactive: 3.4%
17,Cc1nc(SCC(=O)O)c(C#N)c(C)c1CC(=O)c1ccccc1,inactive: 0.296%
18,Cn1c(NCCOc2ccccc2Cl)nc2cc(-c3ccc(F)cc3)sc2c1=O,inactive: 5.88%
19,COc1cc(CNc2ccc3c(c2)OCCO3)ccc1OCC(N)=O,inactive: 7.79%
20,Cc1cc(OCC(=O)NCCN2CCOCC2)cc(C)c1Cl,inactive: -2.82%
21,CC(=O)c1cccc(NC(=O)CSc2nnc(C(C)N(C)C)n2-c2ccc(F)cc2)c1 (stereo not drawn),inactive: 23.5%
22,CC(=O)Nc1ccc(S(=O)(=O)NCCCN2CCOCC2)cc1,inactive: -13.4%

row,Compound,growth rescue (activation)
1,N#C/C(=C\c1cn(Cc2ccc(F)cc2)c2ccccc12)C(=O)NCc1ccco1,inactive: -8.13%
2,COc1ccc(-c2cc(C(F)(F)F)nc(-n3ccnc3)n2)cc1,inactive: 3.3%
3,O=C(N/N=C/c1ccccn1)c1cccs1,inactive: -7.34%
4,Cc1noc(C)c1S(=O)(=O)NC(=O)C1(C)CCN1C(=O)Cc1ccc(-c2ccccc2)cc1 (stereo not drawn),inactive: 20.4%
5,Cc1cc(C(=O)NC(=S)Nc2cccc(NC(=O)C(C)C)c2)ccc1[N+](=O)[O-],inactive: -25.8%
6,COc1ccc2c(C)cc(SCC(=O)Nc3nsc(-c4ccccc4C)n3)nc2c1,inactive: 4.55%
7,CC(C)OC(=O)CN1C(=O)c2ccccc2C1=O,inactive: -9.43%
8,CC(C)CC(N=Cc1c(O)c2ccccc2oc1=O)C(=O)O (stereo not drawn),inactive: 1.7%
9,COc1ccc(/C=N/Nc2nnc(Cc3ccccc3)c(=O)[nH]2)cc1,inactive: 1.92%
10,Cc1cccc(Nc2nc(CC(=O)O)cs2)c1,inactive: 11.7%
11,S=C(NCCc1c[nH]c2ccccc12)NC1CCCC1,inactive: 6.11%
12,COc1ccccc1Nc1nnc(SCc2nnc(-c3cc(OC)c(OC)c(OC)c3)o2)s1,inactive: 2.59%
13,Cc1ccccc1C(=O)NNS(=O)(=O)c1cccc([N+](=O)[O-])c1,inactive: 7.52%
14,COC(=O)C1=C(C)NC(C)=C(C(=O)OC)C1C(=O)OC(C)C(=O)c1ccccc1 (stereo not drawn),inactive: 4.13%
15,Cc1ccccc1NC(=O)C(C)Sc1nnc(-c2ccncc2)n1CC1CCCO1 (stereo not drawn),inactive: -19.4%
16,COc1cccc(NC(=S)N2CCCC2c2ccc(OC)c(OC)c2)c1 (stereo not drawn),inactive: 9.5%
17,CCOP(=O)(c1ccc(N(C)C)cc1)C(O)c1ccc(OC)cc1 (stereo not drawn),inactive: 0.471%
18,COC(=O)c1c(-c2ccccc2Cl)noc1-c1cnc(N)nc1C(F)(F)F,inactive: 9.01%
19,COc1ccccc1C(=O)Nc1ccc(S(=O)(=O)NC2=NCCCCC2)cc1,inactive: 14.5%
20,O=C(OC1CCOC1=O)c1ccc(N2CCCC2)c([N+](=O)[O-])c1 (stereo not drawn),inactive: 15.2%
21,O=C(CCCSc1ccccc1)Nc1cccc(CO)c1,inactive: 13.8%
22,Cc1ccc(C)c(N(C(=O)CNC(=O)c2ccco2)C(C(=O)NC2CCCCC2)c2ccncc2)c1 (stereo not drawn),inactive: 1.86%

row,Compound,growth rescue (activation)
1,O=C(Nc1ccc(S(=O)(=O)N2CCCC2)cc1)c1cnccn1,inactive: 3.94%
2,CCOC(=O)/C(C#N)=C/c1cn(CCC(=O)O)nc1-c1ccccc1,inactive: 8.06%
3,CCc1nnc(NC(=O)c2c(-c3ccccc3)noc2C)s1,inactive: 0.663%
4,COc1ccccc1OCc1ccc(C(=O)NC(C)(C)C)o1,inactive: 21.5%
5,CC(=O)c1cccc(-c2ccnc3c2CC(C(=O)N2CCN(C)CC2)O3)c1 (stereo not drawn),inactive: -1.46%
6,Cc1csc(NC(=O)c2sccc2C)n1,inactive: 8.87%
7,O=C1COc2ccc(S(=O)(=O)Nc3ccc4c(c3)OCO4)cc2N1,inactive: 0.397%
8,O=C(CCN1C(=O)C2C3C=CC(C4CC34)C2C1=O)Oc1ccc(Br)cc1 (stereo not drawn),inactive: -4.01%
9,O=C(CC1SC(=O)N(Cc2ccccc2Cl)C1=O)Nc1nccs1 (stereo not drawn),inactive: 28.8%
10,CCCCN(CCCC)CCNC(=O)c1ccc2nc(-c3ccccc3NC(C)=O)c(=O)[nH]c2c1,inactive: 1.59%
11,Cc1cc(=O)[nH]c(SC(C)C(=O)Nc2cccc3ccccc23)n1 (stereo not drawn),inactive: -7.48%
12,CCN(c1ccccc1)S(=O)(=O)c1ccc(OC)c(NC(=O)CNCC(C)O)c1 (stereo not drawn),inactive: 2.43%
13,CCOc1ccc(S(=O)(=O)N2CCN(Cc3ccc4c(c3)OCO4)CC2)cc1C,inactive: -3.56%
14,OCCC1CN(Cc2cccc3c2OCO3)CCN1C1CCCC1 (stereo not drawn),inactive: 17.1%
15,O=C(O)c1cccc(S(=O)(=O)Nc2ccc(O)c(Sc3nc4ccccc4s3)c2)c1,inactive: 5.44%
16,N#C/C(=C/c1ccc(-c2ccc(S(N)(=O)=O)cc2)o1)c1nc2ccccc2s1,inactive: -13.5%
17,Cc1nc2ccccc2n1CC(O)c1ccccc1 (stereo not drawn),inactive: -8.37%
18,COc1ccc(N(CC(=O)Nc2cccc([N+](=O)[O-])c2C)S(C)(=O)=O)cc1OC,inactive: 18.6%
19,N#Cc1c(-c2ccco2)c2c([nH]c1=S)CCCC2,inactive: 27%
20,Cc1cc(C)cc(N(C(=O)c2snc(C(N)=O)c2N)C(C(=O)NCC2CCCO2)c2ccc(C)o2)c1 (stereo not drawn),inactive: 0.391%
